Test results: PMC6919601, “Identification of Plasmodium dipeptidyl aminopeptidase allosteric inhibitors by high throughput screening” (PLoS ONE, 2019)
Several values for one entry are separate records, joined by “and”; a condition that tells them apart may be missing. Equal entries are not always repeated. The campaign covered roughly 110,000 compounds. About 230 (0.21%) showed an effect of 50% or more. Some of the results follow.

Biological target: DPAP1 (Plasmodium falciparum, UniProt Q8IIJ9)
Sequence (Q8IIJ9 whole entry, looked up): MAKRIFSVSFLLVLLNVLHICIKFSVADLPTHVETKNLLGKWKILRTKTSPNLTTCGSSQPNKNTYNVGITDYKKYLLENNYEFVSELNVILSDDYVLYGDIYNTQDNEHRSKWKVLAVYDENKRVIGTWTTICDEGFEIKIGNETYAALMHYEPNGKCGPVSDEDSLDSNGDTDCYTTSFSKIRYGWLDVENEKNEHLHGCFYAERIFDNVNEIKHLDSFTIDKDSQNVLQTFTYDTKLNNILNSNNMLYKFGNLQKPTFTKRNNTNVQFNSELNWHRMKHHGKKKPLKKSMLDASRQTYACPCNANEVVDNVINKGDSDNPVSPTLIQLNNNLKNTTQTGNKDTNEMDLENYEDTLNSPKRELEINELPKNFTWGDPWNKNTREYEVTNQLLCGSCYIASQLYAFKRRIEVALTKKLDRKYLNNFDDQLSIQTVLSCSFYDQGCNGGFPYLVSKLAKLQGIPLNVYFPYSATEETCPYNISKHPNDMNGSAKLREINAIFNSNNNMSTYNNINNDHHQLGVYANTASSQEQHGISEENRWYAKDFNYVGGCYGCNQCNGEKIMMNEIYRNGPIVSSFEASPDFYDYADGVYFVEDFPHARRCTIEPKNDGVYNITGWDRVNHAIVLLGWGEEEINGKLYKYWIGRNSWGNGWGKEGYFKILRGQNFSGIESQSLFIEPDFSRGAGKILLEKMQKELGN
Assay: primary screen, percent inhibition; read by cleavage of a fluorogenic dipeptide substrate; higher = more effect of the substance
Parameters: species or system P. falciparum D10 trophozoite lysates; single well
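Also: 30 min substrate incubation versus DMSO and 10 µM JCP410 controls.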

Compound | % Inhibition @ 10 uM
CC(NC(=O)C(C)(C)C)c1ccc(Br)cc1 (centres unmarked) | 0.00773%
Cc1cc(C)c2nc3s/c(=C\c4ccc5c(c4)OCO5)c(=O)n3c2c1 | 1.27%
Cc1ccc(S(=O)(=O)N(C)c2ccc(C(=O)NC3CCCCC3)cc2)cc1 | -14.1%
Oc1nc(CSc2nnc(-c3cccnc3)n2-c2ccccc2)nc2ccccc12 | -3.74%
FC(F)(F)COc1nc(N2CCOCC2)nc(N(c2ccccc2)c2ccccc2)n1 | 1.8%
CNC(=O)C1CCC(=O)N1Cc1ccc(C)cc1 (centres unmarked) | 4.81%
CCn1c2ccccc2c2nnc(NCc3cccnc3)nc21 | 1.68%
N#CCNC(=O)C(CC1CCCCC1)C(=O)Nc1cccc2c1CCCC2 (centres unmarked) | -6.98%
Cc1c(C#N)c(N)c(C(=O)c2ccccc2)n1-c1ccccc1 | -1.37%
COc1ccc(NC(=O)c2ccccc2N(C)S(C)(=O)=O)c(OC)c1 | 3.58%
CCN(Cc1ccccc1)c1nc2c(S(=O)(=O)c3cccc(Cl)c3)nnn2c2ccsc12 | 1.68%
Cc1nc2c3cccnc3nn2c(C)c1CCC(=O)NC(C)CCc1ccco1 (centres unmarked) | 1.62%
CC1(c2ccccc2)CC(C)(C)N(C(=O)CN2CCCCC2)c2ccccc21 (centres unmarked) | 2.05%
COc1cccc2cc(C(N)=O)c(=O)oc12 | -1.37%
O=C(Nc1ccccc1C(=O)Nc1nc2ccccc2[nH]1)c1ccc(Cl)cc1 | -0.641%
CS(=O)(=O)N1CCCC(C(=O)NCCCN2CCOCC2)C1 (centres unmarked) | 6.86%
CC1=C(C(=O)Nc2ccccc2)C(c2ccc(OCc3ccccc3)cc2)n2ncnc2N1 (centres unmarked) | 9.82%
O=C(NCc1ccccc1)c1cc2c(s1)-c1ccccc1OC2 | 2.85%
O=[N+]([O-])CC(Nc1ccccc1)c1ccccc1 (centres unmarked) | -4.01%
CCOc1ccc(C(=O)Nc2ccc(C)cc2)cc1 | -1.63%
CCOc1ccc(N2C(=O)C3CC=CCC3C2=O)cc1 (centres unmarked) | -1.54%
O=C(CC(c1ccccc1)c1ccccc1)N1CCN(c2ccc(F)cc2)CC1 | 2.16%
CCCCN(Cc1cc2cc(C)ccc2nc1O)S(C)(=O)=O | -0.671%
CN1CCCC1CCNC1CCC(C(C)(C)C)CC1 (centres unmarked) | 3.15%
COCc1cc(C)nc2sc3c(c12)NCN(Cc1ccco1)C3=O | 2.54%
CC1=[N+]([O-])C(C)(C)[N+]([O-])=C1c1ccc(C)cc1 | -5.28%

Compound | % Inhibition @ 10 uM
Clc1ccccc1Cn1c(-c2cccnc2)nc2ccccc21 | -4.75%
Cc1ccc(/C=C2/CC(C)C/C(=C\c3ccc(C)o3)C2=O)o1 (centres unmarked) | 1.84%
Cc1ccc(CS(=O)(=O)CCC(=O)NCCC(C)C)cc1 | -2.99%
CCOc1cc(C=C2C(=O)NC(=O)NC2=O)ccc1OCc1ccc(C)cc1 | -1.1%
CCOC(=O)c1ccc(-c2nnc(-c3cccc(F)c3)o2)cc1 | 2.7%
C=CCNC(=O)C(=O)Nc1cc(OC)ccc1OC | -7.5%
CN1C(=O)/C(=C2\SC(N3CCOCC3)=NC2=O)c2ccccc21 | -6.68%
COc1ccc(C(=O)N[C@@H](Cc2cc(I)c(O)c(I)c2)C(=O)NCC#N)cc1 | -3.25%
Cc1cc(C)n2c(SCc3ccc(Cl)cc3Cl)nnc2n1 | -3.4%
O=C(NC1CCSC1=O)c1ccccc1Cl (centres unmarked) | 0.62%
CC(C)CNC(=O)C(=O)NCc1ccccn1 | -5.26%
N#Cc1cc2c(nc1SCC(=O)Nc1cccc(F)c1)CCCCC2 | -0.413%
Cc1cccc(-c2nc(SCC(=O)Nc3nccs3)c(-c3ccccc3)[nH]2)c1 | -3.39%
Cc1cc(C)c(OCC(O)CN2CCOCC2)c(C)c1 (centres unmarked) | 0.035%
O=[N+]([O-])c1cccc(NCc2ccccc2)c1 | 3.06%
COc1ccc(N(CC(=O)NCc2ccco2)S(=O)(=O)c2ccc(C)cc2)cc1Cl | 0.161%
NCC(=O)N1CCC2(C=Cc3ccccc32)CC1 | -3.09%
CC(=O)N1CC(C)c2scc(C)[n+]2-c2ccccc21 (centres unmarked) | -2.98%
N#C/C(=C\NCC(=O)O)C(=O)NCc1ccccc1 | -6.69%
CCOc1ccc(S(=O)(=O)NCCOC)c2ccccc12 | -5.19%
COc1ccc(CCN(C)C(=O)C2CCCN(Cc3ccc(OC)c(OC)c3)C2)cc1OC (centres unmarked) | -2.98%
COCC(=O)Nc1nc2nc(-c3ccccc3)cc(O)n2n1 | -3.08%
CCCNC(=O)c1cc2n(n1)C(C(F)(F)F)CC(c1ccc(C)cc1)N2 (centres unmarked) | 10.8%
CC1CC(C)CN(C(=O)c2cnc3ccc(S(=O)(=O)N(C)CCC#N)cc3c2O)C1 (centres unmarked) | -3.21%
CSc1nn(-c2cc(Oc3ccccc3C)ncn2)c(N)c1C#N | -6.18%
CCOc1cc(C)c(S(=O)(=O)NCc2ccc3c(c2)OCO3)cc1C | -5.41%

Compound | % Inhibition @ 10 uM
CCn1cc(CNC(=O)c2cc(-c3ccc(C)c(C)c3)nc3ccccc23)cn1 | 0.64%
O=C(Cc1cccs1)N1CCN(c2ccccc2)CC1 | -6.25%
O=C(NCc1cccnc1)C(=O)N1CCCC1 | -1.75%
CN1CCN(C(=O)C2c3ccccc3C(=O)N(C3CCCC3)C2c2cccs2)CC1 (centres unmarked) | -6.56%
CN(Cc1nc2ccccc2n1C)S(=O)(=O)c1ccc(F)cc1 | 2.42%
CC1=NN(c2ccccc2)C(=O)/C1=C/c1ccc(Cl)cc1 | -2.59%
CCN(CC)C(=O)C1CCCN(CC2CC=CCC2)C1 (centres unmarked) | -1.5%
Oc1ccc(CN2CCC(Cc3ccccc3)CC2)cc1 | -0.828%
Brc1ccc(CN2CCN(c3ccccc3)CC2)s1 | -3.72%
COc1ccc(CCNC(=O)c2nc(S(=O)(=O)Cc3ccc(C)cc3)ncc2Cl)cc1OC | 0.758%
CCN(CC)C(=O)CN1Cc2ccccc2C1=O | 3.87%
CC1CN(C(=O)Cn2cnc3c2c(=O)n(C)c(=O)n3C)CC(C)O1 (centres unmarked) | 8.09%
CC(CCc1ccco1)NC(=O)c1nn(C)c2c1CS(=O)(=O)c1ccccc1-2 (centres unmarked) | 5.82%
Cc1ccc(C2=C/C(=C\c3cccs3)C(=O)O2)cc1C | -0.169%
Brc1ccccc1OCCCN1CCCCC1 | 6.83%
CCOc1cc2c(cc1OCC)C(c1ccc(OC(C)C)cc1)NCC2 (centres unmarked) | 3.53%
CNC(=O)/C(=C/c1ccco1)NC(=O)c1ccc(OC)cc1 | 22.9%
O=C(c1sc2ccccc2c1Cl)N1CCN(c2cccc(C(F)(F)F)c2)CC1 | -9.52%
N=C(Cc1ccc(Cl)c(Cl)c1)NOC(=O)c1ccc2c(c1)OCO2 | -0.386%
COc1ccc(C2C(C#N)=C(N)Oc3[nH]nc(C)c32)cc1COc1ccccc1 (centres unmarked) | -5.48%
CC(C)c1ccc(/C=C2\SC(N3CCCC3)=NC2=O)cc1 | 12.3%
Cc1cccc(/N=c2\scc(-c3ccc(F)cc3)n2CCO)c1 | -3.87%
COc1cccc(C2C3=C(O)CC(C)(C)CC3=Nc3ccccc3N2C(=O)C(F)(F)F)c1OC (centres unmarked) | 2.01%
Clc1ccccc1-c1nnc2c3cnn(Cc4ccccc4)c3ncn12 | 2.95%
COc1ccc(C)cc1N(CC(=O)N1CCOCC1)S(=O)(=O)c1ccccc1 | 2.97%
CCCN(CCO)Cc1ccc(OCC)cc1 | 1.62%

Compound | % Inhibition @ 10 uM
COCCNC(=O)CSCc1nc(-c2ccccc2C)oc1C | 0.689%
CN1CCCC1CCNC1CC2CCC1C2 (centres unmarked) | 1.62%
CC1CN=C(/C=C(\O)c2ccccc2)C(=O)N1 (centres unmarked) | 5.67% and 0.565%
O=C(CCC1CCCCC1)Nc1c2c(nn1-c1cccc(Cl)c1)CS(=O)(=O)C2 | 9.36%
COCCN(Cc1ccc(C)c(Br)c1)S(=O)(=O)c1cc(-c2cc(C)no2)ccc1C | -3.42%
CNC(=O)C1COc2ccccc2O1 (centres unmarked) | -0.239%
CCOC(=O)c1cc(-c2ccc(F)cc2)n(CC(=O)N2CCC(C)CC2)c1C | 0.387%
CN(CCNS(=O)(=O)c1ccc(-c2ccc(O)nn2)s1)C1CCCCC1 | -3.97%
O=S(=O)(Cc1ccccc1)NCc1ccc2c(c1)OCO2 | -3.45%
CC(=O)NS(=O)(=O)c1ccc(NC(=O)C(C)Oc2ccc(Cl)cc2Cl)cc1 (centres unmarked) | -1.28%
COCCCNC(=O)CNC(=S)N(Cc1cccs1)C1CCCCC1 | -0.406%
O=C(O)c1nn2c(C(F)(F)F)cc(-c3ccccc3)nc2c1Cl | -4.15%
CC(C)=C1C2CCC1C1C(=O)N(c3ccc4c(c3)OCO4)C(=O)C21 (centres unmarked) | -2.07%
CC1(C)CC(=O)C(/C=N/CC2CCN(C(=O)Cc3ccccc3)CC2)=C(O)C1 | 3.72%
CCc1cccc(C)c1NC(=O)c1ccc(CN2CCOCC2)cc1 | -9.02%
COc1ccccc1CN1CCCN(C)CC1 | -0.127%
O=C(NCc1ccc(F)cc1)c1ccc(C(=O)NCc2ccc(F)cc2)nc1 | 2.03%
Cc1ccc(NC(=O)/C(=C/c2ccco2)NC(=O)c2ccc(Br)o2)cc1 | 2.36%
CCCCN(CC)CCCNC(=O)CS(=O)Cc1nc(-c2ccc(OC)c(OC)c2)oc1C (centres unmarked) | -6.64%
COc1cccc(C(=O)Nc2cccc3ccccc23)c1 | 2.6%
Brc1cccc2c3c4n(c12)CC1COC4(CCC3)O1 (centres unmarked) | 3.74%
CCC(Sc1nc2cccnc2[nH]1)C(=O)NCc1ccco1 (centres unmarked) | 3.21%
CN(C)CC(C)(C)CNC1CCN(CCc2ccccc2)CC1 | -3.82%
COC(=O)C1=C(C)NC(=O)CC1c1ccc(F)c(F)c1 (centres unmarked) | -3.63%
Clc1cccc(-c2nnc3sc(-c4ccco4)nn23)c1 | -2.21%
Cc1ccc(C2CC(=O)NC(SCC(=O)Nc3ccc(C)cc3Br)=C2C#N)cc1 (centres unmarked) | -4.41%
